Our source for the binding signal (log fluorescence intensity) values is publication PMC6602471.

This is one part of the list. At the low end of the ranking, values are background and their order means little.

The assay addresses T1, ELK1 (UniProt P19419).
T1 sequence: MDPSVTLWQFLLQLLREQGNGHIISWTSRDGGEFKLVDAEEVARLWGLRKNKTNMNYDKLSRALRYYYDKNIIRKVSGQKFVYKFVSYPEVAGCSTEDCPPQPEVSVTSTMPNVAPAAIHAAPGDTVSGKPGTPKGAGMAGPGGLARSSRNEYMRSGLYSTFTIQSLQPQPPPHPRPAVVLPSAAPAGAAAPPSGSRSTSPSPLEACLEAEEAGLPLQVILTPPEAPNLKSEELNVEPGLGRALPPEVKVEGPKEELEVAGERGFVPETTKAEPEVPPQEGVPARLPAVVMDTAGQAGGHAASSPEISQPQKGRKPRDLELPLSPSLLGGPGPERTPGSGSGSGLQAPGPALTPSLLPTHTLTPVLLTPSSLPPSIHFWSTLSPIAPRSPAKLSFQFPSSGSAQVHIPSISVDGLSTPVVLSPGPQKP
Briefly: custom PBM. The settings on record: custom protein-binding microarray; buffer, salt, pH and temperature not stated; high values mean tight binding; double strand, one strand shown.
On to “TCCGGCTACCAGCTCCACCCACTTCAGGCCTTGGAGGTCTTGATTCGCTTGACGCTGCTG”, for which the binding signal (log fluorescence intensity) was 8.82.

Consider “CGGAAGTGTCGTAAACGTCGGATATCCGGTTCTTCTGTCTTGATTCGCTTGACGCTGCTG”, for which the binding signal (log fluorescence intensity) is 12.4.

With “TGTCGGGTAAGGGAATGTAGATCACGTGCATGAAAAGTCTTGATTCGCTTGACGCTGCTG”, the binding signal (log fluorescence intensity) stood at 9.02.

As to “TACTGACTTATATATTCGAATGCACATGAATAGACCGTCTTGATTCGCTTGACGCTGCTG”, the binding signal (log fluorescence intensity) came to 8.77.

In the case of “GTGTATATGATCCCATCCAACACACGTGTTAAAATGGTCTTGATTCGCTTGACGCTGCTG”, the binding signal (log fluorescence intensity) was determined as 9.02.

For “GATTAATTTCTGCCCTTATTGGCACGTGCCATAACAGTCTTGATTCGCTTGACGCTGCTG”, the binding signal (log fluorescence intensity) was 8.85.

In the case of “CTGGGACTTGACCCAACTCTGCCACGTGGGTAGTTTGTCTTGATTCGCTTGACGCTGCTG”, the binding signal (log fluorescence intensity) was determined as 8.8.

For the sequence “TGTCGGGTAAGGGAATGTAGATCACGGGAATGAAAAGTCTTGATTCGCTTGACGCTGCTG”, the binding signal (log fluorescence intensity) was determined as 8.9.

In the case of “GTGTATAGGATCCCATCCAAAACACGTGTTAAAATGGTCTTGATTCGCTTGACGCTGCTG”, the binding signal (log fluorescence intensity) was found to be 8.87.

In the case of “CACAATTTTTACAGTAATGTAGCACGCGTAACTTCTGTCTTGATTCGCTTGACGCTGCTG”, the binding signal (log fluorescence intensity) was found to be 8.64.

For “GCTGCTGCGGTGCATACCCCACCGGATGTGACACCGGTCTTGATTCGCTTGACGCTGCTG”, the binding signal (log fluorescence intensity) was determined as 10.2.

With “GGAAAAAGGCCCAGGGTAACACCGGAAGTGGGCTAAGTCTTGATTCGCTTGACGCTGCTG”, the binding signal (log fluorescence intensity) amounted to 10.8.

As for “CGGAAGTGTCGTAAACGTCGGGTATCCGGTTCTTCTGTCTTGATTCGCTTGACGCTGCTG”, the binding signal (log fluorescence intensity) stood at 11.2.

“CACCATAGGACTTCTTCCCTGAAGCAATTGATAACCGTCTTGATTCGCTTGACGCTGCTG”: the binding signal (log fluorescence intensity) was 8.86.

In the case of “CAGCATTGGACTTCTTCCCTGAAGCAATTGATAACCGTCTTGATTCGCTTGACGCTGCTG”, the binding signal (log fluorescence intensity) came out at 8.9.

As for “CTGGGACTTGACCCAACTCTGCCCCGTGGGTCGTTTGTCTTGATTCGCTTGACGCTGCTG”, the binding signal (log fluorescence intensity) came to 8.87.

Turning to “CTGGGACTTGACCCAAGTCTGCCACGTGGGTCGTTTGTCTTGATTCGCTTGACGCTGCTG”, the binding signal (log fluorescence intensity) is 8.8.

Turning to “GAAAAAAGGCCCAGGGTAACACCGGAAGTGGGCTTAGTCTTGATTCGCTTGACGCTGCTG”, the binding signal (log fluorescence intensity) came out at 11.

Turning to “CAGCATAGGACTTCTTCACTGAAGCAATTGATAACCGTCTTGATTCGCTTGACGCTGCTG”, the binding signal (log fluorescence intensity) was 8.76.

For the sequence “GGAAAAAGGCCCAGGGTAACACCGGAAGTGGTCTTAGTCTTGATTCGCTTGACGCTGCTG”, the binding signal (log fluorescence intensity) is 10.9.

On to “TAAAGGGAAGACGGTTGTGGTAGTTCCGGGGATTAAGTCTTGATTCGCTTGACGCTGCTG”, for which the binding signal (log fluorescence intensity) was determined as 10.9.

On to “GCCGCTGCGGTGCATACCCCACCGGATGTGACCCCGGTCTTGATTCGCTTGACGCTGCTG”, for which the binding signal (log fluorescence intensity) is 10.1.

As to “TAAAGGGAAGACGGTTGTGGTAGTTCCGAGTATTAAGTCTTGATTCGCTTGACGCTGCTG”, the binding signal (log fluorescence intensity) stood at 9.53.

“CTGGGACTTGACCCAACTCTGCCACGTGAGTCGTTTGTCTTGATTCGCTTGACGCTGCTG”: the binding signal (log fluorescence intensity) was determined as 9.

For “CGGAAGTGTCGCAAACGTCGGATATCCGGTTCTTCTGTCTTGATTCGCTTGACGCTGCTG”, the binding signal (log fluorescence intensity) is 12.5.

In the case of “CAGCATAGGTCTTCTTCCCTGAAGCAATTGATAACCGTCTTGATTCGCTTGACGCTGCTG”, the binding signal (log fluorescence intensity) came out at 8.99.

As to “GGAAAAAGGCCCAGGGTAGCACCGGAAGTGGGCTTAGTCTTGATTCGCTTGACGCTGCTG”, the binding signal (log fluorescence intensity) amounted to 10.8.

For “CACAATTTTTACAGTAATGTAGTACGCGTAACTCCTGTCTTGATTCGCTTGACGCTGCTG”, the binding signal (log fluorescence intensity) was 9.01.

Regarding “CGGAAGCGTCGTAAACGTCGGATATCCGGTTCTTCTGTCTTGATTCGCTTGACGCTGCTG”, the binding signal (log fluorescence intensity) amounted to 12.5.

Consider “CACAATTTTTACAATAATGTAGCACGCGTAACTCCTGTCTTGATTCGCTTGACGCTGCTG”, for which the binding signal (log fluorescence intensity) is 8.88.

Consider “TCCGGCTACCAGCTCCCCCCACTTCAGGCCTTGTAGGTCTTGATTCGCTTGACGCTGCTG”, for which the binding signal (log fluorescence intensity) amounted to 8.72.

Turning to “GATTAATTTCTGCCCTTATTCGCACGTGCCATACCAGTCTTGATTCGCTTGACGCTGCTG”, the binding signal (log fluorescence intensity) was determined as 8.97.

With “GCTGCGGCGGTGCATACCCCACCGGATGTGACCCCGGTCTTGATTCGCTTGACGCTGCTG”, the binding signal (log fluorescence intensity) is 10.4.

For the sequence “CACAATTTTTACAGTAATGTACCACGCGTAACTCCTGTCTTGATTCGCTTGACGCTGCTG”, the binding signal (log fluorescence intensity) amounted to 8.89.

For “GCTGCTGCGGTGCATGCCCCACCGGATGTGACCCCGGTCTTGATTCGCTTGACGCTGCTG”, the binding signal (log fluorescence intensity) came out at 10.2.

With “GCGGCTGCGGTGCATACCCCACCGGATGTGACCCCGGTCTTGATTCGCTTGACGCTGCTG”, the binding signal (log fluorescence intensity) was found to be 10.

For the sequence “TAAAGGTAAGACGGTTGTGGTAGTTCCGGGTATTAAGTCTTGATTCGCTTGACGCTGCTG”, the binding signal (log fluorescence intensity) was 11.2.

“GATTAATTTCTGCCCTTCTTCGCACGTGCCATAACAGTCTTGATTCGCTTGACGCTGCTG”: the binding signal (log fluorescence intensity) was determined as 8.75.

Regarding “CTGGGACTTGACCCAACTCTGCCACGTGGGTCGGTTGTCTTGATTCGCTTGACGCTGCTG”, the binding signal (log fluorescence intensity) was found to be 8.84.

Consider “GGAAAAAGGACCAGGGTAACACCGGAAGTGGGCTTAGTCTTGATTCGCTTGACGCTGCTG”, for which the binding signal (log fluorescence intensity) turned out to be 11.

“CTGGGACTTGACCCATCTCTGCCACGTGGGTCGTTTGTCTTGATTCGCTTGACGCTGCTG”: the binding signal (log fluorescence intensity) was determined as 8.88.
